Source: the supplement of paper PMC8728848
Some of the results follow.

What was measured:
Experiment in all cases: glycan array binding signal (z-score within array); higher = stronger binding
Conditions in all cases: glycan notation: IUPAC condensed, linker removed; mutation: G182A
Fuc(a1-2)Gal = molecular target: Fuc(a1-2)Gal
Method in brief: (§1)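 Glycan array data came from 3228 arrays in the Consortium for Functional Glycomics database, and only arrays with an available protein sequence were kept. Glycan names were put into IUPAC-condensed notation, and columns mapping to the same glycan were averaged. The binding signal is a within-array Z-score, averaged across arrays of one protein sequence run at different concentrations or buffers and across linkers. A negative Z-score can be read as non-binding.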

Fuc(a1-2)Gal(b1-3)GalNAc = molecular target: Fuc(a1-2)Gal(b1-3)GalNAc
Method in brief: as §1

[1] = molecular target: Fuc(a1-2)Gal(b1-3)GalNAc(a1-3)[Fuc(a1-2)]Gal(b1-4)Glc
Method in brief: as §1

[2] = molecular target: Fuc(a1-2)Gal(b1-3)GalNAc(a1-3)[Fuc(a1-2)]Gal(b1-4)GlcNAc
Method in brief: as §1

[3] = molecular target: Fuc(a1-2)Gal(b1-3)GalNAc(b1-3)Gal
Method in brief: as §1

[4] = molecular target: Fuc(a1-2)Gal(b1-3)GalNAc(b1-3)Gal(a1-4)Gal(b1-4)Glc
Method in brief: as §1

[5] = molecular target: Fuc(a1-2)Gal(b1-3)GalNAc(b1-4)[Neu5Ac(a2-3)]Gal(b1-4)Glc
Method in brief: as §1

Fuc(a1-2)Gal(b1-3)GlcNAc = molecular target: Fuc(a1-2)Gal(b1-3)GlcNAc
Method in brief: as §1

[6] = molecular target: Fuc(a1-2)Gal(b1-3)GlcNAc(b1-2)Man(a1-3)[Fuc(a1-2)Gal(b1-3)GlcNAc(b1-2)Man(a1-6)]Man(b1-4)GlcNAc(b1-4)GlcNAc
Method in brief: as §1

[7] = molecular target: Fuc(a1-2)Gal(b1-3)GlcNAc(b1-3)Gal(b1-4)Glc
Method in brief: as §1

[8] = molecular target: Fuc(a1-2)Gal(b1-3)GlcNAc(b1-3)[Fuc(a1-3)[Gal(b1-4)]GlcNAc(b1-6)]Gal(b1-4)Glc
Method in brief: as §1

[9] = molecular target: Fuc(a1-2)Gal(b1-3)[Fuc(a1-4)]GlcNAc
Method in brief: as §1

[10] = molecular target: Fuc(a1-2)Gal(b1-3)[Fuc(a1-4)]GlcNAc(b1-2)Man(a1-3)[Fuc(a1-2)Gal(b1-3)[Fuc(a1-4)]GlcNAc(b1-2)Man(a1-6)]Man(b1-4)GlcNAc(b1-4)GlcNAc
Method in brief: as §1

[11] = molecular target: Fuc(a1-2)Gal(b1-3)[Fuc(a1-4)]GlcNAc(b1-3)[Fuc(a1-3)[Gal(b1-4)]GlcNAc(b1-6)]Gal(b1-4)Glc
Method in brief: as §1

[12] = molecular target: Fuc(a1-2)Gal(b1-3)[Fuc(a1-4)]GlcNAc(b1-3)[Gal(b1-4)GlcNAc(b1-6)]Gal(b1-4)Glc
Method in brief: as §1

Fuc(a1-2)Gal(b1-4)Glc = molecular target: Fuc(a1-2)Gal(b1-4)Glc
Method in brief: as §1

Fuc(a1-2)Gal(b1-4)Glc6S = molecular target: Fuc(a1-2)Gal(b1-4)Glc6S
Method in brief: as §1

Fuc(a1-2)Gal(b1-4)GlcNAc = molecular target: Fuc(a1-2)Gal(b1-4)GlcNAc
Method in brief: as §1

[13] = molecular target: Fuc(a1-2)Gal(b1-4)GlcNAc(b1-2)Man(a1-3)[Fuc(a1-2)Gal(b1-4)GlcNAc(b1-2)Man(a1-6)]Man(b1-4)GlcNAc(b1-4)GlcNAc
Method in brief: as §1

[14] = molecular target: Fuc(a1-2)Gal(b1-4)GlcNAc(b1-3)Gal(b1-4)GlcNAc
Method in brief: as §1

[15] = molecular target: Fuc(a1-2)Gal(b1-4)GlcNAc(b1-3)Gal(b1-4)GlcNAc(b1-3)Gal(b1-4)GlcNAc
Method in brief: as §1

[16] = molecular target: Fuc(a1-2)Gal(b1-4)GlcNAc(b1-3)GalNAc
Method in brief: as §1

[17] = molecular target: Fuc(a1-2)Gal(b1-4)GlcNAc6S
Method in brief: as §1

[18] = molecular target: Fuc(a1-2)Gal(b1-4)[Fuc(a1-3)]GlcNAc
Method in brief: as §1

[19] = molecular target: Fuc(a1-2)Gal(b1-4)[Fuc(a1-3)]GlcNAc(b1-2)Man(a1-3)[Fuc(a1-2)Gal(b1-4)[Fuc(a1-3)]GlcNAc(b1-2)Man(a1-6)]Man(b1-4)GlcNAc(b1-4)GlcNAc
Method in brief: as §1

[20] = molecular target: Fuc(a1-2)Gal(b1-4)[Fuc(a1-3)]GlcNAc(b1-3)Gal(b1-4)[Fuc(a1-3)]GlcNAc
Method in brief: as §1

[21] = molecular target: Fuc(a1-2)Gal(b1-4)[Fuc(a1-3)]GlcNAc(b1-3)Gal(b1-4)[Fuc(a1-3)]GlcNAc(b1-3)Gal(b1-4)[Fuc(a1-3)]GlcNAc
Method in brief: as §1

Fuc(a1-2)Gal6S(b1-4)Glc = molecular target: Fuc(a1-2)Gal6S(b1-4)Glc
Method in brief: as §1

[22] = molecular target: Fuc(a1-2)Gal6S(b1-4)Glc6S
Method in brief: as §1

[23] = molecular target: Fuc(a1-2)Gal6S(b1-4)GlcNAc
Method in brief: as §1

Fuc(a1-2)[Gal(a1-3)]Gal = molecular target: Fuc(a1-2)[Gal(a1-3)]Gal
Method in brief: as §1

[24] = molecular target: Fuc(a1-2)[Gal(a1-3)]Gal(b1-3)GlcNAc
Method in brief: as §1

[25] = molecular target: Fuc(a1-2)[Gal(a1-3)]Gal(b1-3)GlcNAc(b1-2)Man(a1-3)[Fuc(a1-2)[Gal(a1-3)]Gal(b1-3)GlcNAc(b1-2)Man(a1-6)]Man(b1-4)GlcNAc(b1-4)GlcNAc
Method in brief: as §1

[26] = molecular target: Fuc(a1-2)[Gal(a1-3)]Gal(b1-4)Glc
Method in brief: as §1

[27] = molecular target: Fuc(a1-2)[Gal(a1-3)]Gal(b1-4)GlcNAc
Method in brief: as §1

[28] = molecular target: Fuc(a1-2)[Gal(a1-3)]Gal(b1-4)GlcNAc(b1-2)Man(a1-3)[Fuc(a1-2)[Gal(a1-3)]Gal(b1-4)GlcNAc(b1-2)Man(a1-6)]Man(b1-4)GlcNAc(b1-4)GlcNAc
Method in brief: as §1

[29] = molecular target: Fuc(a1-2)[Gal(a1-3)]Gal(b1-4)[Fuc(a1-3)]GlcNAc
Method in brief: as §1

[30] = molecular target: Fuc(a1-2)[Gal(a1-4)]Gal(b1-4)GlcNAc
Method in brief: as §1

[31] = molecular target: Fuc(a1-2)[GalNAc(a1-3)]Gal
Method in brief: as §1

[32] = molecular target: Fuc(a1-2)[GalNAc(a1-3)]Gal(b1-3)GalNAc(a1-3)[Fuc(a1-2)]Gal(b1-4)GlcNAc
Method in brief: as §1

[33] = molecular target: Fuc(a1-2)[GalNAc(a1-3)]Gal(b1-3)GlcNAc
Method in brief: as §1

[34] = molecular target: Fuc(a1-2)[GalNAc(a1-3)]Gal(b1-3)GlcNAc(b1-2)Man(a1-3)[Fuc(a1-2)[GalNAc(a1-3)]Gal(b1-3)GlcNAc(b1-2)Man(a1-6)]Man(b1-4)GlcNAc(b1-4)GlcNAc
Method in brief: as §1

[35] = molecular target: Fuc(a1-2)[GalNAc(a1-3)]Gal(b1-4)Glc
Method in brief: as §1

[36] = molecular target: Fuc(a1-2)[GalNAc(a1-3)]Gal(b1-4)GlcNAc
Method in brief: as §1

[37] = molecular target: Fuc(a1-2)[GalNAc(a1-3)]Gal(b1-4)GlcNAc(b1-2)Man(a1-3)[Fuc(a1-2)[GalNAc(a1-3)]Gal(b1-4)GlcNAc(b1-2)Man(a1-6)]Man(b1-4)GlcNAc(b1-4)GlcNAc
Method in brief: as §1

B1: Gal 3 (Homo sapiens), P17931 (protein)
chain: MADNFSLHDALSGSGNPNPQGWPGAWGNQPAGAGGYPGASYPGAYPGQAPPGAYPGQAPPGAYHGAPGAYPGAPAPGVYPGPPSGPGAYPSSGQPSAPGAYPATGPYGAPAGPLIVPYNLPLPGGVVPRMLITILGTVKPNANILDFQRGNDVAFHFNPRFNENNRRVIVCNTKLDNNWAREERQSVFPFESGKPFKIQVLVEPDHFKVAVNDAHLLQYNHRVKKLNEISKLGISGDIDLTSASYTMI
glycan array binding signal (z-score) (Fuc(a1-2)Gal): -0.196
glycan array binding signal (z-score) (Fuc(a1-2)Gal(b1-3)GalNAc): -0.185
glycan array binding signal (z-score) [1]: -0.176
glycan array binding signal (z-score) [2]: -0.19
glycan array binding signal (z-score) [3]: -0.176
glycan array binding signal (z-score) [4]: -0.17
glycan array binding signal (z-score) [5]: -0.193
glycan array binding signal (z-score) (Fuc(a1-2)Gal(b1-3)GlcNAc): -0.14
glycan array binding signal (z-score) [6]: -0.192
glycan array binding signal (z-score) [7]: -0.128
glycan array binding signal (z-score) [8]: -0.173
glycan array binding signal (z-score) [9]: -0.191
glycan array binding signal (z-score) [10]: -0.144
glycan array binding signal (z-score) [11]: -0.19
glycan array binding signal (z-score) [12]: -0.192
glycan array binding signal (z-score) (Fuc(a1-2)Gal(b1-4)Glc): -0.178
glycan array binding signal (z-score) (Fuc(a1-2)Gal(b1-4)Glc6S): -0.164
glycan array binding signal (z-score) (Fuc(a1-2)Gal(b1-4)GlcNAc): -0.188
glycan array binding signal (z-score) [13]: -0.16
glycan array binding signal (z-score) [14]: 0.712
glycan array binding signal (z-score) [15]: 5.12
glycan array binding signal (z-score) [16]: -0.187
glycan array binding signal (z-score) [17]: -0.165
glycan array binding signal (z-score) [18]: -0.182
glycan array binding signal (z-score) [19]: -0.186
glycan array binding signal (z-score) [20]: -0.141
glycan array binding signal (z-score) [21]: -0.184
glycan array binding signal (z-score) (Fuc(a1-2)Gal6S(b1-4)Glc): -0.169
glycan array binding signal (z-score) [22]: -0.19
glycan array binding signal (z-score) [23]: -0.19
glycan array binding signal (z-score) (Fuc(a1-2)[Gal(a1-3)]Gal): -0.187
glycan array binding signal (z-score) [24]: -0.036
glycan array binding signal (z-score) [25]: 0.63
glycan array binding signal (z-score) [26]: -0.156
glycan array binding signal (z-score) [27]: 1.68
glycan array binding signal (z-score) [28]: 9.17
glycan array binding signal (z-score) [29]: -0.159
glycan array binding signal (z-score) [30]: -0.192
glycan array binding signal (z-score) [31]: -0.182
glycan array binding signal (z-score) [32]: -0.189
glycan array binding signal (z-score) [33]: -0.174
glycan array binding signal (z-score) [34]: -0.162
glycan array binding signal (z-score) [35]: -0.182
glycan array binding signal (z-score) [36]: 0.028
glycan array binding signal (z-score) [37]: 5.25
